Measurements from ChEMBL document CHEMBL4888484, “Replenishing the malaria drug discovery pipeline: Screening and hit evaluation of the MMV Hit Generation Library 1 (HGL1) against asexual blood stage Plasmodium falciparum ,using a nano luciferase reporter read-out” (2022).
Hit rate of the full screen: of about 150,000 compounds, about 540 (0.36%) showed an effect of 50% or more. The list shows a part of the results.

What follows are molecules tested on Plasmodium falciparum (assay: Primary screen in NF54 nanoGlo assay, in single point, at 2uM, 72h; a lower Z score goes with more inhibition). Settings: timepoint 72 hour.
Format: functional, Erythrocyte
`C[C@@H]1CN(Cc2cncn2C2CCCCC2)C[C@]1(C)O` was tested, and the “% Inhibition” value was -8% and the Z score was 1.27. In the case of `C[C@H](O)c1nc2cc(NC(=O)c3cc(C#N)cn3C)ccc2[nH]1`, the “% Inhibition” value is reported as 12% and the Z score is reported as -1.62. With `CCC(=O)c1ccc(Cl)c(NC(=O)[C@H]2OCC[C@H]2C)c1` the “% Inhibition” value was -6% and the Z score was 1.11. `COc1ccc(S(=O)(=O)[C@H]2CS(=O)(=O)C[C@@H]2N2CCC3(CC2)OCCO3)cc1` was tested, and the “% Inhibition” value was 12% and the Z score was -1.54. In the case of `CC(C)c1nc([C@H]2CCCN(C(=O)c3ccc(C#N)cn3)C2)no1`, the “% Inhibition” value is reported as -4% and the Z score is reported as 0.74. For `O=C(Nc1cccc2c1OC(F)(F)O2)N1CCc2nc[nH]c(=O)c2CC1`, the “% Inhibition” value was -5% and the Z score was 0.99. `COc1cccc(CS(=O)(=O)Nc2cc(C(F)(F)F)ccn2)c1` was tested, and the “% Inhibition” value was -11% and the Z score was 1.4. `CC(C)CC[C@](C)(O)CNS(=O)(=O)c1cncc(F)c1` was tested, and the “% Inhibition” value was -16% and the Z score was 2.04. In the case of `N#Cc1c(NC(=O)c2cccc3ccccc23)sc2c1CCCC2` [GW620972X], the “% Inhibition” value is reported as -21% and the Z score is reported as 3.59. With `Cc1ncsc1CN1CCC(Nc2ncnc3c2CCC3)CC1` the “% Inhibition” value was -12% and the Z score was 2.03. With `O=C(C[C@@]1(O)C(=O)N(Cc2ccccc2F)c2ccccc21)c1ccc2c(c1)OCO2` the “% Inhibition” value was 3% and the Z score was -0.4. In the case of `CCN(CCNc1nc(C)cc(C)n1)C1CC1`, the “% Inhibition” value is reported as -11% and the Z score is reported as 1.08. With `CC(C)c1ccc(OCC(=O)N(Cc2ccccc2)[C@H]2CCS(=O)(=O)C2)cc1` the “% Inhibition” value was -12% and the Z score was 1.03. With `O=C(N[C@H](c1ccco1)C(F)(F)F)c1cn(CCN2CCCCC2)nn1` the “% Inhibition” value was 12% and the Z score was -1.57. `O[C@H]1C[C@H]2CC[C@@H](C1)N2c1nc(-c2ccncc2)nc2c1CNC2` was tested, and the “% Inhibition” value was -5% and the Z score was 0.43. With `Nc1nnc(C2(NC(=O)CCN3CCCCC3=O)CCCCC2)s1` the “% Inhibition” value was 8% and the Z score was -0.66. In the case of `COc1ccc(CNC(=O)c2ccc(Oc3ccccc3)cc2)cc1OC`, the “% Inhibition” value is reported as -7% and the Z score is reported as 1.23. For `Cc1cc2c(n1-c1cccc3ncccc13)CCCC2=O`, the “% Inhibition” value was -1% and the Z score was 0.16. For `CCc1nc(-c2ccc(-n3cc(C(=O)Nc4cc(C)cc(C)c4)c(C)n3)cc2)no1`, the “% Inhibition” value was 0% and the Z score was -0.09. With `O=C([C@@H]1CCCCC(=O)N1Cc1ccccc1)N1CCN(c2ccccn2)CC1` the “% Inhibition” value was 2% and the Z score was -0.3. With `c1ccc(-c2ncn([C@H]3CCOC3)c2-c2c[nH]nc2C2CCCCC2)cc1` the “% Inhibition” value was -7% and the Z score was 0.77. In the case of `COc1ccc(NC(=O)Cc2c(C)nc3nc(-c4cccnc4)nn3c2C)cc1`, the “% Inhibition” value is reported as 21% and the Z score is reported as -2.36. For `CC(=O)N1CCN(C(=O)c2ccc(C)nc2C2CCN(C(=O)c3ccco3)CC2)CC1`, the “% Inhibition” value was -3% and the Z score was 0.32. With `c1ccc(CCN(Cc2cccnc2)Cc2cnc(N3CCCC3)s2)cc1` the “% Inhibition” value was 1% and the Z score was -0.21. For `O=C(Nc1nccs1)C1=NN(Cc2ccc(F)cc2)C(=O)CC1`, the “% Inhibition” value was -13% and the Z score was 1.14. With `Cc1ccccc1CC(=O)Nc1ccc2ncnc(N3CCCC3)c2c1` the “% Inhibition” value was -11% and the Z score was 1.73. For `CC(C)N1CC(N2C(=O)[C@H]3CCCN3C2=O)CC1=O` (some centres not stated), the “% Inhibition” value was 2% and the Z score was -0.29. `COc1ccc(CN(C(=O)NC2CCOCC2)C2CCCC2)cc1OC` was tested, and the “% Inhibition” value was -1% and the Z score was 0.1. With `Cc1ccc(Cc2nc(N3CCCN(CCC(C)C)CC3)c3cnn(-c4ccccc4)c3n2)cc1` the “% Inhibition” value was -5% and the Z score was 0.7. In the case of `Cn1c(=O)c(N2CCOCC2)c2c3c(cccc31)C(=O)c1ccccc1-2`, the “% Inhibition” value is reported as -11% and the Z score is reported as 1.43. With `Cc1nc(N(C)CCn2ccnc2C)c2c(C)noc2n1` the “% Inhibition” value was -4% and the Z score was 0.74. With `COc1ccc(Nc2nc(C(C(F)(F)F)(C(F)(F)F)C(F)(F)F)nc(C(C(F)(F)F)(C(F)(F)F)C(F)(F)F)n2)cc1` the “% Inhibition” value was 36% and the Z score was -5.2. In the case of `CC1CCN(C(=O)Cn2c(=O)n(C)c(=O)c3sccc32)CC1`, the “% Inhibition” value is reported as 22% and the Z score is reported as -2.51. In the case of `Cc1nccc(C(=O)Nc2ncccc2O)n1`, the “% Inhibition” value is reported as -12% and the Z score is reported as 0.99. `Cc1nc([C@@H]2CCCCN2C)n(-c2ccc(Cl)cc2Cl)n1` was tested, and the “% Inhibition” value was -13% and the Z score was 1.41. With `CCn1ccc(CN(C)Cc2c(C)noc2C)n1` the “% Inhibition” value was -7% and the Z score was 0.92. In the case of `COc1ccc([C@@H](O)Cn2cnc(C(=O)Nc3ccc4c(c3)OCO4)n2)cc1`, the “% Inhibition” value is reported as -17% and the Z score is reported as 1.98. In the case of `COCCCNC(=O)c1ccc2c(c1)[C@@H](O)CCCCCN2C`, the “% Inhibition” value is reported as -6% and the Z score is reported as 0.71. `COCC1(O)CN(Cc2ccccc2-c2ccnn2C)C1` was tested, and the “% Inhibition” value was -2% and the Z score was 0.17. With `CCC(CNC(=O)N1CCCC(CO)C1)Oc1ccccc1C` (configuration not stated) the “% Inhibition” value was 3% and the Z score was -0.57. With `Cc1noc2ncc(C(=O)N[C@@H](C)c3cnn(-c4cccc(C(F)(F)F)c4)c3C)cc12` the “% Inhibition” value was 12% and the Z score was -1.63. With `CC1CCCN(C(=O)NCC2CCC(C(N)=O)O2)C1C` (configuration not stated) the “% Inhibition” value was -3% and the Z score was 0.32. In the case of `COCC(=O)N1CC[C@@H]2OCc3cccc(c3)Oc3ccc(cc3)CCC(=O)N(CCCO)CC(=O)N[C@H]2C1`, the “% Inhibition” value is reported as -4% and the Z score is reported as 0.57. With `COc1ccc([C@@H]2CC(c3ccccc3Cl)=NN2C(=O)CN(CCN2CCOCC2)C(=O)C2CCC2)cc1` the “% Inhibition” value was -10% and the Z score was 1. With `O=C(c1ccc(Cl)c(S(=O)(=O)N2CCCCCC2)c1)N1CCn2c1nc1ccccc12` the “% Inhibition” value was 3% and the Z score was -0.44. For `Cc1ncsc1CN1CCn2c(nn(C)c2=O)C1`, the “% Inhibition” value was -7% and the Z score was 1.27. `O=C(Cn1cnc2c(nc3n2CCCCC3)c1=O)N1CCN(Cc2ccccc2)CC1` was tested, and the “% Inhibition” value was -9% and the Z score was 1.4. In the case of `CCCC[C@H]1C(=O)N(C)CCN1C(=O)c1ccoc1COc1ccc(C)cc1`, the “% Inhibition” value is reported as -19% and the Z score is reported as 2.48. `CCn1ccnc1CN(C)C(=O)NCc1nc(C2CCCCC2)no1` was tested, and the “% Inhibition” value was -4% and the Z score was 0.42. In the case of `Cc1cccnc1[C@@H](NC(=O)c1ccc(C(C)C)[nH]c1=O)C1CC1`, the “% Inhibition” value is reported as -2% and the Z score is reported as 0.22. In the case of `CC(C)[C@H](NC(=O)c1ccc(Cl)c(C(F)(F)F)c1)C(N)=O`, the “% Inhibition” value is reported as 2% and the Z score is reported as -0.25. In the case of `CN1CC2(C[C@H]1c1nc(-c3ccccc3)no1)CN(C(=O)c1cccn1C)C2`, the “% Inhibition” value is reported as 9% and the Z score is reported as -1. In the case of `Cc1ccc(S(=O)(=O)Nc2ccc(N3CCCCCCC3)c(C(=O)O)c2)c(C)c1`, the “% Inhibition” value is reported as -5% and the Z score is reported as 0.48. In the case of `COCc1nc([C@H]2CCOC2)cc(N2CCn3nc(C)cc3C2)n1`, the “% Inhibition” value is reported as -9% and the Z score is reported as 1.69. For `CC(=O)Nc1ccc2nc(N3CCC(C(=O)N4CCC(N5CCCCC5)CC4)CC3)cc(C)c2c1`, the “% Inhibition” value was 10% and the Z score was -1.6. `Cc1nc(CC(=O)N2CC[C@@H]3OCc4cccc(c4)Oc4ccc(cc4)CCC(=O)N(CCCO)CC(=O)N[C@H]3C2)cs1` was tested, and the “% Inhibition” value was -4% and the Z score was 0.69. In the case of `COc1ccc(-n2cccn2)c(CN2CCC3(CC2)C(=O)N(C)C(=O)N3C)c1`, the “% Inhibition” value is reported as -14% and the Z score is reported as 2.73. `CCN1CCN(C(C)(C)CNc2cccc(C(N)=O)n2)CC1` was tested, and the “% Inhibition” value was 6% and the Z score was -0.92. In the case of `CCOc1ccc(-c2nc([C@H]3CCOC3)no2)o1`, the “% Inhibition” value is reported as 10% and the Z score is reported as -1.27. With `Cc1ccc(-c2cncnc2)c2cccnc12` the “% Inhibition” value was -2% and the Z score was 0.31. `CC(C)CCC(=O)Nc1cc(C(F)(F)F)ccc1C1CCN(C(=O)CCC(C)C)CC1` was tested, and the “% Inhibition” value was -10% and the Z score was 1.13. With `CCN(CC)c1ccc(NS(=O)(=O)c2cc(-c3nc(C)c(C)s3)sc2C)c(C)c1` the “% Inhibition” value was 1% and the Z score was -0.12. With `C=CCN(CC=C)S(=O)(=O)c1ccc(S(=O)(=O)Nc2ncnn2C)cc1` the “% Inhibition” value was -3% and the Z score was 0.49. In the case of `CCN1C[C@@H](c2ccccc2)CC2(CCN(c3ncccc3C(N)=O)CC2)C1`, the “% Inhibition” value is reported as -8% and the Z score is reported as 1.76. `Cc1ccc(C(=O)N(C)CC(=O)NC(C)C)c(C)c1` was tested, and the “% Inhibition” value was -6% and the Z score was 0.59. In the case of `COc1ccc(C(=O)C[n+]2nc(CNc3ccc(Br)cc3)n3c2CCCCC3)cc1`, the “% Inhibition” value is reported as 78% and the Z score is reported as -12.51. In the case of `COCc1csc(NC(=O)N2Cc3ccccc3OC[C@@H]2C)n1`, the “% Inhibition” value is reported as -17% and the Z score is reported as 2.13. For `Cc1nc(C)c(C(=O)c2oc3ccccc3c2N)o1`, the “% Inhibition” value was -30% and the Z score was 3.52. With `Cc1cccc(OCC(=O)N2[C@@H]3CC[C@H]2CC(NC(=O)c2ccc(F)cc2)C3)c1` (some centres not stated) the “% Inhibition” value was 5% and the Z score was -0.76. In the case of `CCCc1cc(C(=O)NCCc2nc(C)c3c(n2)CCC3)[nH]n1`, the “% Inhibition” value is reported as -19% and the Z score is reported as 3.34. With `Cc1nsc(N2CCC([C@H](O)C(=O)NC3CC3)CC2)c1C#N` the “% Inhibition” value was 14% and the Z score was -1.82. In the case of `CCCc1cc(C(=O)N[C@H](C(=O)O)C(C)(C)C)[nH]n1`, the “% Inhibition” value is reported as -17% and the Z score is reported as 1.96. In the case of `O=c1ccc(-c2ccc3ccccc3c2)c2n1C[C@H]1C[C@@H]2CN(S(=O)(=O)c2ccccc2)C1`, the “% Inhibition” value is reported as -13% and the Z score is reported as 2.35. With `Cc1ccc(-c2nc(-c3ccc4c(c3)ncn4CCC(=O)N3CCCC3)no2)cc1F` the “% Inhibition” value was -24% and the Z score was 3.13. `CCc1nsc(NCC2(Br)CC2)n1` was tested, and the “% Inhibition” value was 1% and the Z score was -0.17. For `Cc1ccc(Oc2ccc(C#N)cn2)cn1`, the “% Inhibition” value was -15% and the Z score was 1.83. With `COCC(=O)N(CC(=O)N1CCc2sccc2C1COc1ccccc1F)CC1CCCO1` (configuration not stated) the “% Inhibition” value was 0% and the Z score was 0.04. With `O=S(=O)(Nc1ccc(Cl)c2cccnc12)c1c(F)cc(F)cc1Br` the “% Inhibition” value was -8% and the Z score was 1.3. In the case of `O=C(Nc1c(C(=O)Nc2ccc3c(c2)OCO3)oc2ccccc12)c1ccc2ccccc2c1`, the “% Inhibition” value is reported as -4% and the Z score is reported as 0.81. In the case of `O=C1CN(C(=O)NCc2c(F)cccc2Cl)CCCN1`, the “% Inhibition” value is reported as -6% and the Z score is reported as 1.11. `CCOC(=O)CN(Cc1cccn1Cc1cccc(C)c1)C1CCCCC1` was tested, and the “% Inhibition” value was 3% and the Z score was -0.32.
